# Reference: the supplement of paper PMC4604168 (melanoma cell lines)
# Some of the results follow. Many values rest on one well or one pass, so single values are uncertain.
# System: RPMI7951
# Test: cell count relative to DMSO control; melanoma cells; higher = more viable cells
# Conditions: library dose: low library concentration; 72 h
# 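Note: cell number obtained by counting DAPI-stained nuclei in high-throughput microscope images with image analysis software, screen run in 1,536-well plates.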
row,SMILES,cell count
1,"CC(=O)O[C@@]12CO[C@@H]1C[C@H](O)[C@@]1(C)C(=O)[C@H](O)C3=C(C)[C@@H](OC(=O)[C@H](O)[C@@H](NC(=O)OC(C)(C)C)c4ccccc4)C[C@@](O)([C@@H](OC(=O)c4ccccc4)[C@H]21)C3(C)C [Docetaxel] + COc1cc2ncnc(Nc3ccc(Oc4ccccc4)cc3)c2cc1OC [SrcI1] (first compound 0.0001 µM, partner dose 2 µM)",36.9%
2,"CO[C@H]1C[C@@H]2CC[C@@H](C)[C@@](O)(O2)C(=O)C(=O)N2CCCC[C@H]2C(=O)O[C@H]([C@H](C)C[C@@H]2CC[C@@H](OCCO)[C@H](OC)C2)CC(=O)[C@H](C)/C=C(\C)[C@@H](O)[C@@H](OC)C(=O)[C@H](C)C[C@H](C)/C=C/C=C/C=C/1C [everolimus] + CC(C)CCN1c2nc(Nc3cc(F)c(O)c(F)c3)ncc2N(C)C(=O)C1C [BID1870] (first compound 0.02 µM, partner dose 0.2 µM)",76.4%
3,"CO[C@H]1C[C@@H]2CC[C@@H](C)[C@@](O)(O2)C(=O)C(=O)N2CCCC[C@H]2C(=O)O[C@H]([C@H](C)C[C@@H]2CC[C@@H](OCCO)[C@H](OC)C2)CC(=O)[C@H](C)/C=C(\C)[C@@H](O)[C@@H](OC)C(=O)[C@H](C)C[C@H](C)/C=C/C=C/C=C/1C [everolimus] + Nc1cccc2c1CN(C1CCC(=O)NC1=O)C2=O [lenalidomide] (first compound 0.02 µM, partner dose 1 µM)",78.9%
4,"CO[C@H]1C[C@@H]2CC[C@@H](C)[C@@](O)(O2)C(=O)C(=O)N2CCCC[C@H]2C(=O)O[C@H]([C@H](C)C[C@@H]2CC[C@@H](OCCO)[C@H](OC)C2)CC(=O)[C@H](C)/C=C(\C)[C@@H](O)[C@@H](OC)C(=O)[C@H](C)C[C@H](C)/C=C/C=C/C=C/1C [everolimus] + CS(=O)(=O)CCNCc1ccc(-c2ccc3ncnc(Nc4ccc(OCc5cccc(F)c5)c(Cl)c4)c3c2)o1 [lapatinib] (first compound 0.02 µM, partner dose 0.8 µM)",69.2%
5,"CO[C@H]1C[C@@H]2CC[C@@H](C)[C@@](O)(O2)C(=O)C(=O)N2CCCC[C@H]2C(=O)O[C@H]([C@H](C)C[C@@H]2CC[C@@H](OCCO)[C@H](OC)C2)CC(=O)[C@H](C)/C=C(\C)[C@@H](O)[C@@H](OC)C(=O)[C@H](C)C[C@H](C)/C=C/C=C/C=C/1C [everolimus] + O=C(O)c1ccc2c(c1)nc(Nc1cccc(Cl)c1)c1ccncc12 [CX4945] (first compound 0.02 µM, partner dose 0.4 µM)",67.6%
6,"CO[C@H]1C[C@@H]2CC[C@@H](C)[C@@](O)(O2)C(=O)C(=O)N2CCCC[C@H]2C(=O)O[C@H]([C@H](C)C[C@@H]2CC[C@@H](OCCO)[C@H](OC)C2)CC(=O)[C@H](C)/C=C(\C)[C@@H](O)[C@@H](OC)C(=O)[C@H](C)C[C@H](C)/C=C/C=C/C=C/1C [everolimus] + Clc1ccc(Nc2nnc(Cc3ccncc3)c3ccccc23)cc1 [vatalanib] (first compound 0.02 µM, partner dose 2 µM)",78.4%
7,"CC(=O)c1c(C)c2cnc(Nc3ccc(N4CCNCC4)cn3)nc2n(C2CCCC2)c1=O [palbociclib] + COc1cc(Nc2ncc(F)c(Nc3ccc4c(n3)NC(=O)C(C)(C)O4)n2)cc(OC)c1OC [Tamatinib] (first compound 0.04 µM, partner dose 0.4 µM)",59%
8,"CO[C@H]1C[C@@H]2CC[C@@H](C)[C@@](O)(O2)C(=O)C(=O)N2CCCC[C@H]2C(=O)O[C@H]([C@H](C)C[C@@H]2CC[C@@H](OCCO)[C@H](OC)C2)CC(=O)[C@H](C)/C=C(\C)[C@@H](O)[C@@H](OC)C(=O)[C@H](C)C[C@H](C)/C=C/C=C/C=C/1C [everolimus] + CNC(=O)c1cc(Oc2ccc(NC(=O)Nc3ccc(Cl)c(C(F)(F)F)c3)cc2)ccn1 [sorafenib] (first compound 0.02 µM, partner dose 0.4 µM)",93.3%
9,"CO[C@H]1C[C@@H]2CC[C@@H](C)[C@@](O)(O2)C(=O)C(=O)N2CCCC[C@H]2C(=O)O[C@H]([C@H](C)C[C@@H]2CC[C@@H](OCCO)[C@H](OC)C2)CC(=O)[C@H](C)/C=C(\C)[C@@H](O)[C@@H](OC)C(=O)[C@H](C)C[C@H](C)/C=C/C=C/C=C/1C [everolimus] + Cn1nnc2c(C(N)=O)ncn2c1=O [temozolomide] (first compound 0.02 µM, partner dose 2 µM)",69.3%
10,"CO[C@H]1C[C@@H]2CC[C@@H](C)[C@@](O)(O2)C(=O)C(=O)N2CCCC[C@H]2C(=O)O[C@H]([C@H](C)C[C@@H]2CC[C@@H](OCCO)[C@H](OC)C2)CC(=O)[C@H](C)/C=C(\C)[C@@H](O)[C@@H](OC)C(=O)[C@H](C)C[C@H](C)/C=C/C=C/C=C/1C [everolimus] + Cc1ccc(NC(=O)c2cccc(N(C)C)c2)cc1NC(=O)c1ccc(O)cc1 [ZM336372] (first compound 0.02 µM, partner dose 2 µM)",64.9%
11,"CC(=O)c1c(C)c2cnc(Nc3ccc(N4CCNCC4)cn3)nc2n(C2CCCC2)c1=O [palbociclib] + COc1ccc(COc2ccc(Cc3cnc(N)nc3N)cc2OC)cc1 [GW2580] (first compound 0.04 µM, partner dose 1 µM)",70.6%
12,"CO[C@H]1C[C@@H]2CC[C@@H](C)[C@@](O)(O2)C(=O)C(=O)N2CCCC[C@H]2C(=O)O[C@H]([C@H](C)C[C@@H]2CC[C@@H](OCCO)[C@H](OC)C2)CC(=O)[C@H](C)/C=C(\C)[C@@H](O)[C@@H](OC)C(=O)[C@H](C)C[C@H](C)/C=C/C=C/C=C/1C [everolimus] + CCc1ccc(CCOc2ccc(CC3SC(=O)NC3=O)cc2)nc1 [pioglitazone] (first compound 0.02 µM, partner dose 2 µM)",92.3%
13,"Nc1ncn([C@H]2C[C@H](O)[C@@H](CO)O2)c(=O)n1 [decitabine] + COc1ccc(COc2ccc(Cc3cnc(N)nc3N)cc2OC)cc1 [GW2580] (first compound 0.1 µM, partner dose 1 µM)",93.5%
14,"Nc1nc(F)nc2c1ncn2[C@@H]1O[C@H](CO)[C@@H](O)[C@@H]1O [fludarabine] + O=S(=O)(c1ccccc1)N(CC(F)(F)F)c1ccc(C(O)(C(F)(F)F)C(F)(F)F)cc1 [T0901317] (first compound 0.2 µM, partner dose 1.4 µM)",92.6%
15,"Nc1ncn([C@H]2C[C@H](O)[C@@H](CO)O2)c(=O)n1 [decitabine] + O=C(O)C(=O)Nc1sc2c(c1C(=O)O)CCNC2 [TCS401] (first compound 0.1 µM, partner dose 1.66667 µM)",89.4%
16,"CO[C@H]1C[C@@H]2CC[C@@H](C)[C@@](O)(O2)C(=O)C(=O)N2CCCC[C@H]2C(=O)O[C@H]([C@H](C)C[C@@H]2CC[C@@H](OCCO)[C@H](OC)C2)CC(=O)[C@H](C)/C=C(\C)[C@@H](O)[C@@H](OC)C(=O)[C@H](C)C[C@H](C)/C=C/C=C/C=C/1C [everolimus] + OCc1c[nH]c2ccccc12 [Indole-3-carbinol] (first compound 0.02 µM, partner dose 0.8 µM)",70.8%
